# Experimental data: PubChem BioAssay AID485341 (National Center for Advancing Translational Sciences (NCATS), 2010)
# Out of some 330,000 compounds screened, about 1,700 (0.52%) were called active. The call rests on the fitted dose curve; in most records, active means well fitted inhibition curve with a large enough effect; inconclusive means small, poorly fitted or top-dose-only effect; inactive means no such curve, though single readings can be large or run the other way. More than one record can exist for a structure, and the calls need not agree. A number of entries come with more than one value. This is not the full list of results. There may be further records. Results that share an entry are repeated measurements in other runs, samples, wells, individuals or studies. Records carry a tag for their origin. The letters are not those of the source and start again with each entry.
# Biological target: Beta-lactamase (Escherichia coli (strain K12)) (UniProt P00811)
# Chain of UniProt P00811 (P00811 whole entry, looked up): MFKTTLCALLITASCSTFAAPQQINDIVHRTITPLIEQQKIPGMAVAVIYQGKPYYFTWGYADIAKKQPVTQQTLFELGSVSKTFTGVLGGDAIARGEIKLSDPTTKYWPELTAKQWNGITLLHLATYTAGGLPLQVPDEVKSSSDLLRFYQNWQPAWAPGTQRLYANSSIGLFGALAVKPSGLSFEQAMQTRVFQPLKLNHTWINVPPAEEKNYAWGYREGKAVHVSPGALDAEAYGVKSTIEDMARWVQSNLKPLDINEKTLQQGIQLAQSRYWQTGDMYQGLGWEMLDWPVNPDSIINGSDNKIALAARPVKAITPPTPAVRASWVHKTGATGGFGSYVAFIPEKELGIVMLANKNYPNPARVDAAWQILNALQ
# Experiment: qHTS Inhibitors of AmpC Beta-Lactamase (assay without detergent); further: nearly all actives have a fitted effect of over 20% in size
# Conditions: AmpC nitrocefin hydrolysis, absorbance 480 nm, 0.0001% Triton; series mostly up to 57.1 µM
# Description: NIH Molecular Libraries Probe Production Network [MLPCN] NIH Chemical Genomics Center [NCGC] Assay Provider: Professor Brian Shoichet, UCSF Assay Overview: This aggregation profiling approach exploits the sensitivity of aggregate formation to detergent. Inhibition of b-lactamase is measured in the presence and absence of 0.01% Triton X-100. This particular assay had the prescence of 0.01% Triton X-100. See Pubchem assay "Promiscuous and Specific Inhibitors of AmpC Beta-Lactamase (assay without detergent)" for related screen. Compounds that inhibit only in the absence of detergent are considered likely promiscuous aggregators. A screen of 1,030 compounds was performed in Brian Shoichet's lab in 96-well format. AmpC activity was measured by following the absorbance at 480 nm. Nitrocefin is a chromogenic substrate: while nitrocefin is yellow (lmax 390 nm), the product of its hydrolysis is red (lmax 486 nm, 17,000 M-1). AmpC beta lactamase was provided by Shoichet Lab, UCSF.
# Buffer: 20 mM phosphate buffer, pH 7.0 Triton X-100: No Detergent screen: 0.0001%, Detergent screen: 0.01%. Reagents/Controls: Buffer in columns 3 and 4 as negative control (no enzyme). 5.3 nM AmpC in columns 1, 2, 5-48. […] The plates were immediately transferred to and read every 20 seconds for 4 min on ViewLux (Perkin-Elmer) High-throughput CCD imager using 480 nm absorbance protocol. […]
# Potency means the concentration at half of the fitted maximal effect.
row,Structure (SMILES),Potency
1,CO/N=C(\C(=O)N[C@@H]1C(=O)N2C(C(=O)O)=C(COC(C)=O)CS[C@H]12)c1csc(N)n1 (stereo in doubt),inactive [sample A] and inactive [sample B] and active: 14.1 µM [sample C]
